Here are results for 6 cell lines from the supplement of paper PMC4967469.

IC50 is the fitted dose that halves viability relative to control wells, and lower means more sensitive; a fit beyond the top or the lowest dose is shown as a bound at that dose. The AUC spans the tested range (256-fold, ending at the top dose) of the same fit; values near 1 show little effect. For part of these data: Where the top dose is marked as inferred, it was calculated from the reported fits. For part of these data: Drugs with an entry number were screened twice under separate entries, and the two screens often disagree.

Common to all, as to test: Viability of human cancer cell lines after 72 h of drug (GDSC screen)
Compound in one experiment: CCCC(=O)OCc1ccc(OC(=O)/C=C(C)/C=C/C=C(C)/C=C/C2=C(C)CCCC2(C)C)cc1 [VNLG/124]
Conditions: top dose 5.12 µM; top dose inferred. Here is the method: (§1)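 Human cancer cell lines in 384-well plates, medium with 10% serum, drug for 72 h over a 256-fold dose range (nine 2-fold or five 4-fold steps up to the top dose). Adherent lines were fixed and stained with the nucleic acid dye Syto60, suspension lines read with resazurin; signal relative to control wells, capped at 0 and 100%. One two-parameter sigmoid per drug and line, fitted in a mixed model over all curves with the slope shared within a line.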

Compound in another experiment: COc1cc(N2CCC(C(N)=O)CC2)ccc1Nc1nc(N)c(Cl)c(Nc2ccccc2S(=O)(=O)C(C)C)n1 [HG-5-88-01]
Particulars: top dose 10 µM; top dose inferred. Here is the method:
as §1

Compound in a further experiment: O=C(/C=C/c1ccc(CN(CCO)CCc2c[nH]c3ccccc23)cc1)NO [LAQ824]
Conditions: top dose 1.024 µM; top dose inferred. Here is the method:
as §1

Compound in another experiment: O=C(Nc1cccc(Nc2ncc(Br)c(NCCc3cnc[nH]3)n2)c1)N1CCCC1 [BX-912]
Particulars: top dose 10.24 µM; top dose inferred. Here is the method:
as §1

Compound in a further experiment: O=C(Nc1ccc(OC(F)(F)F)cc1)c1sccc1NCc1ccnc2ccccc12 [OSI-930]
Conditions: top dose 10.24 µM. Here is the method:
as §1

Compound in a further experiment: CC/C(=C(\c1ccccc1)c1ccc(OCCN(C)C)cc1)c1ccccc1 [Tamoxifen]
Particulars: top dose 5 µM. Here is the method:
as §1

Compound in a further experiment: Cc1ccc(NC(=O)c2ccc(CN3CCN(C)CC3)cc2)cc1Nc1nc(-c2cccnc2)cs1 [Masitinib]
Particulars: top dose 20 µM. Here is the method: as §1

Compound in the next experiment: Cc1c(N)nc([C@H](CC(N)=O)NC[C@H](N)C(N)=O)nc1C(=O)N[C@H](C(=O)N[C@H](C)[C@@H](O)[C@H](C)C(=O)N[C@H](C(=O)NCCc1nc(-c2nc(C(=O)NCCC[S+](C)C)cs2)cs1)[C@@H](C)O)[C@@H](OC1OC(CO)C(O)C(O)C1OC1OC(CO)C(O)C(OC(N)=O)C1O)c1cnc[nH]1 [Bleomycin]
Here is the method: as §1

Compound in a further experiment: O=S(=O)(O)c1ccc2cc(N=Nc3cc(S(=O)(=O)O)c4cccnc4c3O)ccc2c1 [NSC-87877]
Particulars: top dose 16 µM; top dose inferred. Here is the method: as §1

Compound in a further experiment: CN(NC(=O)CC(=O)NN(C)C(=S)c1ccccc1)C(=S)c1ccccc1 [Elesclomol]
Conditions: top dose 0.2 µM; top dose inferred. Here is the method:
as §1

[1] abbreviates: top dose 50 µM, screen: GDSC drug entry 1378, top dose inferred.
Where [2] appears, read: top dose 64 µM, screen: GDSC drug entry 190.

One may read the IC50 as the midpoint of a concentration-inhibition curve. Turning to CAL-27 (head and neck, adherent), the AUC with VNLG/124 is 0.964; with HG-5-88-01, 0.923; with LAQ824, 0.487; with BX-912, 0.853; in the experiment with OSI-930, 0.974; with Tamoxifen it was 0.926. Also, the AUC in the experiment with Masitinib was found to be 0.94; in the experiment with Bleomycin (setting [1]), 0.228; with Bleomycin (setting [2]), 0.623; with NSC-87877, 0.793; with Elesclomol it was 0.5. The concentration for half-maximal inhibition (IC50) with VNLG/124 is above 5.12 µM; with HG-5-88-01, above 10 µM; in the experiment with LAQ824, 0.059 µM; with BX-912, 8.21 µM; with OSI-930, above 10.2 µM; in the experiment with Tamoxifen it was above 5 µM. Moreover, the 50% inhibitory concentration (IC50) in the experiment with Masitinib was above 20 µM; with Bleomycin (setting [1]), 0.497 µM; in the experiment with Bleomycin (setting [2]), 8.78 µM; in the experiment with NSC-87877, 7.44 µM; in the experiment with Elesclomol, 0.0125 µM.
For the cell line PCI-30 (head and neck, adherent), the AUC in the experiment with VNLG/124 turned out to be 0.98; in the experiment with HG-5-88-01 it was 0.964; in the experiment with LAQ824 it was 0.659; with BX-912, 0.904; in the experiment with OSI-930, 0.979; in the experiment with Tamoxifen it was 0.983. The AUC with Masitinib came to 0.975; with Bleomycin (setting [1]), 0.625; with Bleomycin (setting [2]), 0.979; with NSC-87877 it was 0.985; with Elesclomol, 0.481. In addition, the IC50 was above 5.12 µM with VNLG/124; above 10 µM with HG-5-88-01; 0.196 µM in the experiment with LAQ824; above 10.2 µM with BX-912; above 10.2 µM with OSI-930; above 5 µM in the experiment with Tamoxifen. Besides, the half-maximal inhibitory concentration (IC50) is above 20 µM with Masitinib; 7.48 µM with Bleomycin (setting [1]); above 64 µM with Bleomycin (setting [2]); above 16 µM with NSC-87877; 0.0109 µM with Elesclomol.
Regarding CCK-81 (large intestine, adherent), the AUC with VNLG/124 is 0.975; with HG-5-88-01, 0.966; with LAQ824 it was 0.482; with BX-912, 0.984; with OSI-930 it was 0.969; in the experiment with Tamoxifen, 0.989. The AUC is 0.883 with Masitinib; 0.902 in the experiment with Bleomycin (setting [1]); 0.731 with Bleomycin (setting [2]); 0.949 with NSC-87877; 0.946 in the experiment with Elesclomol. Also, the IC50 in the experiment with VNLG/124 was above 5.12 µM; with HG-5-88-01, above 10 µM; with LAQ824 it was 0.0573 µM; with BX-912, above 10.2 µM; in the experiment with OSI-930 it was above 10.2 µM; with Tamoxifen it was above 5 µM. Further, the IC50 was 19.3 µM in the experiment with Masitinib; above 50 µM with Bleomycin (setting [1]); 17.4 µM with Bleomycin (setting [2]); above 16 µM with NSC-87877; above 0.2 µM in the experiment with Elesclomol.
In the case of EC-GI-10 (oesophagus, adherent), the AUC is 0.986 with VNLG/124; 0.968 in the experiment with HG-5-88-01; 0.812 with LAQ824; 0.989 in the experiment with BX-912; 0.979 with OSI-930; 0.941 with Tamoxifen. In addition, the AUC was determined as 0.989 in the experiment with Masitinib; 0.518 in the experiment with Bleomycin (setting [1]); 0.911 with Bleomycin (setting [2]); 0.988 in the experiment with NSC-87877; 0.709 in the experiment with Elesclomol. Also, the IC50 is above 5.12 µM in the experiment with VNLG/124; above 10 µM in the experiment with HG-5-88-01; 0.542 µM with LAQ824; above 10.2 µM in the experiment with BX-912; above 10.2 µM with OSI-930; above 5 µM with Tamoxifen. In addition, the IC50 in the experiment with Masitinib was above 20 µM; with Bleomycin (setting [1]), 3.49 µM; with Bleomycin (setting [2]), above 64 µM; with NSC-87877, above 16 µM; with Elesclomol it was 0.0484 µM.
Turning to LB2241-RCC (kidney, adherent), the AUC with VNLG/124 was found to be 0.982; with HG-5-88-01, 0.858; in the experiment with LAQ824, 0.489; with BX-912, 0.984; with OSI-930 it was 0.981; in the experiment with Tamoxifen, 0.956. For the same cell line, the AUC with Masitinib amounted to 0.979; with Bleomycin (setting [1]) it was 0.281; in the experiment with Bleomycin (setting [2]), 0.29; with NSC-87877 it was 0.984; with Elesclomol, 0.696. Besides, the IC50 with VNLG/124 was above 5.12 µM; in the experiment with HG-5-88-01, 9.87 µM; with LAQ824 it was 0.0596 µM; in the experiment with BX-912 it was above 10.2 µM; with OSI-930, above 10.2 µM; in the experiment with Tamoxifen, above 5 µM. Besides, the 50% inhibitory concentration (IC50) with Masitinib was above 20 µM; in the experiment with Bleomycin (setting [1]), 0.687 µM; in the experiment with Bleomycin (setting [2]), 0.94 µM; in the experiment with NSC-87877, above 16 µM; in the experiment with Elesclomol it was 0.0476 µM.
For the cell line CGTH-W-1 (thyroid, adherent), the AUC with VNLG/124 amounted to 0.985; in the experiment with HG-5-88-01 it was 0.972; with LAQ824, 0.279; with BX-912, 0.742; with OSI-930, 0.94; in the experiment with Tamoxifen, 0.985. For the same cell line, the AUC came to 0.798 in the experiment with Masitinib; 0.386 with Bleomycin (setting [1]); 0.517 with Bleomycin (setting [2]); 0.973 in the experiment with NSC-87877; 0.421 with Elesclomol. In addition, the half-inhibitory concentration (IC50) in the experiment with VNLG/124 was above 5.12 µM; with HG-5-88-01 it was above 10 µM; with LAQ824, 0.0152 µM; with BX-912, 3.14 µM; with OSI-930, above 10.2 µM; with Tamoxifen, above 5 µM. In addition, the IC50 with Masitinib is 9.43 µM; in the experiment with Bleomycin (setting [1]), 1.52 µM; in the experiment with Bleomycin (setting [2]) it was 4.46 µM; with NSC-87877 it was above 16 µM; with Elesclomol it was 0.00759 µM.
